Data on 83 compounds can be found in PMC4336329 (PLoS ONE, 2015).

In all, about 310,000 compounds went through this assay and about 14,000 (4.5%) showed an effect of 50% or more. Effects have a minus sign here. Some of the results follow.
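Further: peak tail current of the secondary pulse compared with the same well before compound.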

The target of this assay is human ether-à-go-go-related gene (hERG) potassium channel (human, UniProt Q12809). Kind of assay: primary screen, population patch clamp on CHO cells stably expressing hERG.
Sequence of human ether-à-go-go-related gene (hERG) potassium channel (Q12809 whole entry, looked up): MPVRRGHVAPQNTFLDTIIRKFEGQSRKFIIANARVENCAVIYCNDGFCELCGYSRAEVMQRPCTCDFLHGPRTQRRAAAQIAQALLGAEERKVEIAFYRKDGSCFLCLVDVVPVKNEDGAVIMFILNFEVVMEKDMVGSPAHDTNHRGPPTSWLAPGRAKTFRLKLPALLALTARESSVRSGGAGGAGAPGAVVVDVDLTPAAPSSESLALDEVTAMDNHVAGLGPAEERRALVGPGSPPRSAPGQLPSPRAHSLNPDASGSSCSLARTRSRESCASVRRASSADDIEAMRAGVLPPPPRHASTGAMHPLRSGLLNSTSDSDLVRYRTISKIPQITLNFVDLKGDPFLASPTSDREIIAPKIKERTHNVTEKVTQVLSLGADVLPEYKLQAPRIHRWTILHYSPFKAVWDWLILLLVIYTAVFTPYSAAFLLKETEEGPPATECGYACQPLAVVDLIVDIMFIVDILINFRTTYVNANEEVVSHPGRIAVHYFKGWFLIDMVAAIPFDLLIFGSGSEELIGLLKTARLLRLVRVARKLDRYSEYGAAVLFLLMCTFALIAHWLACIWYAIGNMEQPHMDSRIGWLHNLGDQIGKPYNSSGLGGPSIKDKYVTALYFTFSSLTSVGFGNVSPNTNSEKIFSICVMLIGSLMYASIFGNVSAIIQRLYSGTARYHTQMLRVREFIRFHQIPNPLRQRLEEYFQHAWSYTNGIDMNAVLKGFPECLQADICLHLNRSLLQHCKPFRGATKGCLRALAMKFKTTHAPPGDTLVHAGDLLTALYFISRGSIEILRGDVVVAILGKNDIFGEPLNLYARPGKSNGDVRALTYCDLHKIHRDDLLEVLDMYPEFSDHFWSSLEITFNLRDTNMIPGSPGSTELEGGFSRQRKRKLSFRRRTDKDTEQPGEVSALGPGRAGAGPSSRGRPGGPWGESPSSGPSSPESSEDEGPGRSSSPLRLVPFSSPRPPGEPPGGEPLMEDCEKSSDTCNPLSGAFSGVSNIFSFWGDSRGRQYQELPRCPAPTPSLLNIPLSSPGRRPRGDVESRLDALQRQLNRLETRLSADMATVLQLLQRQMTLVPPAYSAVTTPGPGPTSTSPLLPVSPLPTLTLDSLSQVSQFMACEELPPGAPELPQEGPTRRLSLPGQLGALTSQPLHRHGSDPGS
Consider `CSc1nnnn1CCn1nnnc1SC`, for which the “hERG current change (%, negative = inhibition) at 10uM” value is listed as 10.1%.
Consider `Cl.O.O=C(NCCCCCCNC(=O)c1cncc(O)c1)c1cncc(O)c1`, for which the “hERG current change (%, negative = inhibition) at 10uM” value stood at 5.65%.
Then `COc1ccc(-c2nn(CCC#N)cc2C(=O)Nc2ccccc2Br)cc1[N+](=O)[O-]`, with -39.6%.
In the case of `CNc1ccc(/C=C/C(=O)c2ccc3c(c2)OCCO3)cc1[N+](=O)[O-]`, the “hERG current change (%, negative = inhibition) at 10uM” value was determined as 1%.
With `COc1ccc(/C=C/c2ccc3cccc(O)c3n2)c(OC)c1OC`, the “hERG current change (%, negative = inhibition) at 10uM” value was 21%.
As for `COc1ccc(-n2c(SCC[NH+](C)C)nc3ccccc3c2=O)cc1.[Cl-]`, the “hERG current change (%, negative = inhibition) at 10uM” value was -32.6%.
Then `Cc1ccc(C)c(OCc2cc(C(=O)NC3CCOC(C)(C)C3)no2)c1` (centres unmarked), with 8.47%; and `CC(C)[C@H](NC(=O)OC(C)(C)C)C(=O)N1CCC(C(=O)N[C@@H](C)C(=O)Nc2ccc(F)cc2)CC1`, with 10.7%.
Then `Cc1ccc(S(=O)(=O)Nc2nc3ccccc3nc2NCc2ccco2)cc1`, with -11.3%; and `N#Cc1c(-c2ccc3c(c2)OCO3)ccn2nc(-c3cccc(C(F)(F)F)c3)nc12`, with -9.61%.
Then `CN(C)/C=N/c1nc2nccc(-c3ccccc3)n2n1`, with 9.42%; and `COCCCNC(=S)Nc1ccc2nc3n(c(=O)c2c1)CCCCC3`, with 7.89%.
In the case of `O=C(CCc1nc2ccccc2c(=O)[nH]1)OCc1ccc(-c2ccccc2)cc1`, the “hERG current change (%, negative = inhibition) at 10uM” value is given as -0.168%.
Then `COc1cccc(CN(C)CC(=O)Nc2sc3c(c2C#N)CCC3)c1OC`, with 10.3%; and `CC(C)CN(C(=O)c1cccc(S(=O)(=O)N2CCN(C)CC2)c1)C1CCS(=O)(=O)C1` (centres unmarked), with 15.4%.
For `Cc1ccc(S(=O)(=O)N2CCN(CC(=O)Nc3ccc([N+](=O)[O-])cc3)CC2)cc1C`, the “hERG current change (%, negative = inhibition) at 10uM” value was -76.9%.
Then `COC(=O)c1c(C)oc(C)c1S(=O)(=O)N(Cc1ccccc1)C(C)C`, with -6.25%; and `CCOc1ccc(N(CC(=O)Nc2cc(C)ccc2C)S(=O)(=O)c2c(C)[nH]c(=O)[nH]c2=O)cc1`, with -0.563%.
On to `COc1cccc(C(=O)NCC(=O)OCC(=O)Nc2cc(OC)c([N+](=O)[O-])cc2C)c1`, for which the “hERG current change (%, negative = inhibition) at 10uM” value was -5.76%.
Take `O=C(c1ccco1)N1CCN(Cc2nnc(-c3cccc(Cl)c3)o2)CC1`: the “hERG current change (%, negative = inhibition) at 10uM” value is -45.9%.
Then `CS(=O)(=O)N(CC(=O)N1CCCC1)Cc1ccc(F)cc1`, with 17.4%; and `COc1cc2c(cc1OC)-c1cc(Nc3ccc(C(=O)O)cc3)nc(=O)n1CC2`, with 9.45%; and `CCC(C)OC(=O)C[N+](C)(C)CCOC1CC2CCC1(C)C2(C)C.[Cl-]` (centres unmarked), with -17.3%.
As to `CC1CC(C)CN(C(=O)C2CCN(S(=O)(=O)c3c(Cl)cccc3Cl)CC2)C1` (centres unmarked), the “hERG current change (%, negative = inhibition) at 10uM” value was -15.7%.
Then `CCCCn1c(N)c(N(CCC(C)C)C(=O)c2cccc(S(=O)(=O)N3CCN(C)CC3)c2)c(=O)[nH]c1=O`, with 5.78%; and `C=C(C)CNC(=S)NNC(=O)CCn1c2cc(Cl)ccc2c2ccc(Cl)cc21`, with 11.7%; and `CCc1c(C)nc(SC)n(CC#N)c1=O`, with -4.77%.
Regarding `O=C(/C=C/Nc1ccccc1C(=O)O)c1cccs1`, the “hERG current change (%, negative = inhibition) at 10uM” value was 22.6%.
Then `O=C(N/N=C/c1c(O)n(CCc2ccccc2)c(=O)[nH]c1=O)c1ccccc1O`, with -15.9%; and `Clc1cccc(-c2noc3ncnc(Nc4ccc5c(c4)OCO5)c23)c1`, with -2.65%; and `COc1ccc(/C=N/N2CCOCC2)cc1Cn1nc(C)c([N+](=O)[O-])c1C`, with -10.8%.
Then `COc1cc(C(=O)NCc2nnc(SCC(=O)N3CCCCCC3)o2)cc(OC)c1OC`, with 15.9%.
In the case of `O=C1N(Cc2cccnc2)C[C@@H]2C[C@@H](c3cccc(OC4CCCC4)c3)N3CCC[C@@]123`, the “hERG current change (%, negative = inhibition) at 10uM” value is on record as -69.5%.
Then `Cc1cccc(N2CCN(S(=O)(=O)c3ccc4[nH]c(=O)ccc4c3)CC2)c1C`, with -5.71%.
Regarding `Cc1c(Cl)cccc1NC(=O)CC1SCCNC1=O` (centres unmarked), the “hERG current change (%, negative = inhibition) at 10uM” value amounted to 2.98%.
Then `COc1ccc(C2/C(=C(/O)c3ccccc3)C(=O)C(=O)N2C)cc1OC` (centres unmarked), with 0.648%.
Regarding `O=C(NCC(=O)N1CCN(c2ccccn2)CC1)c1ccc(Br)o1`, the “hERG current change (%, negative = inhibition) at 10uM” value is given as -15.3%.
As to `CCOC(=O)c1c(NC(=O)CSc2nnnn2-c2ccc3c(c2)OCCO3)sc(C)c1C`, the “hERG current change (%, negative = inhibition) at 10uM” value is given as 18.8%.
Then `CCC(CC)NC(=O)CN(c1ccccc1OC)S(=O)(=O)c1cccs1`, with -11.3%; and `COc1ccccc1CNC(=O)C1Cc2cc(S(=O)(=O)N3CCCCC3)ccc2N1C(C)=O` (centres unmarked), with -3.67%.
In the case of `Cc1cc(C)c(S(=O)(=O)NCC(=O)NCc2ccccn2)c(C)c1`, the “hERG current change (%, negative = inhibition) at 10uM” value is listed as -5.49%.
Then `O=c1[nH]c(=O)n(C(c2ccccc2)c2ccccc2)cc1Br`, with 12.7%.
Then `CCOC(=O)Cc1csc(NC(=O)C2CCCN(S(=O)(=O)c3cnc[nH]3)C2)n1` (centres unmarked), with 1.88%; and `O=C(COC(=O)c1ccccn1)NC(=O)c1ccccc1`, with -4.07%; and `Cc1nc(C)c(C(=O)OCC(=O)Nc2ccccc2SCC#N)s1`, with -16.3%.
Then `COc1cc(NC(=O)CSc2nc3[nH]ncc3c(=O)n2-c2ccccc2C)cc(OC)c1OC`, with 2.58%; and `O=C(CC(c1ccccc1)c1cc(Br)ccc1O)N1CCCC1` (centres unmarked), with -32.2%; and `O=C(Nc1nnc(-c2ccco2)o1)c1ccc(Cl)cc1`, with -46.1%.
`COc1ccc(CCNc2c([N+](=O)[O-])c(=O)oc3ccccc23)cc1OC`: the “hERG current change (%, negative = inhibition) at 10uM” value was -13.9%.
Consider `Cc1ccc(C(=O)CCC(=O)OCC(=O)Nc2ccc3[nH]c(=O)[nH]c3c2)cc1`, for which the “hERG current change (%, negative = inhibition) at 10uM” value came out at 14%.
Turning to `CC12CC(NC(=O)N1c1cccc(C(=O)NCc3ccccn3)c1)c1ccccc1O2` (centres unmarked), the “hERG current change (%, negative = inhibition) at 10uM” value is listed as 8.78%.
`CCCOc1cccc(C2C(C(=O)c3ccco3)=C(O)C(=O)N2c2nnc(C)s2)c1` (centres unmarked): the “hERG current change (%, negative = inhibition) at 10uM” value is given as 3.63%.
For the compound `COC(=O)CCc1c(C)c(C(=O)c2ccc(F)cc2)c2ccccn12`, the “hERG current change (%, negative = inhibition) at 10uM” value is 0.135%.
Then `Cc1sc(NC(=O)CS(=O)(=O)c2ccccc2)c(C(N)=O)c1C`, with -20.9%; and `Cc1ccc(NS(=O)(=O)c2c(C)[nH]c(=O)[nH]c2=O)c(C)c1`, with 24.3%.
In the case of `CCn1c(C)nnc1SCC(=O)NC1CCCCCC1`, the “hERG current change (%, negative = inhibition) at 10uM” value is reported as 19.3%.
`COc1ccc(NC(=O)CCCCCN2C(=O)CCC2=O)cc1Cl`: the “hERG current change (%, negative = inhibition) at 10uM” value is listed as -2.22%.
Turning to `N#CCc1ccc(OC(=O)c2cnccc2C(F)(F)F)cc1`, the “hERG current change (%, negative = inhibition) at 10uM” value is reported as 6.26%.
Turning to `COc1ccccc1N1CC(C(=O)OCC(=O)c2ccc(F)cc2)CC1=O` (centres unmarked), the “hERG current change (%, negative = inhibition) at 10uM” value is reported as -5.48%.
`CCN(C(=O)CSc1ncn[nH]1)C1CCCCC1`: the “hERG current change (%, negative = inhibition) at 10uM” value amounted to 6.3%.
On to `CCOC(=O)CCP(=O)(O)C(C)(O)c1ccccc1` (centres unmarked), for which the “hERG current change (%, negative = inhibition) at 10uM” value stood at 8.5%.
Then `Cn1c(CO)cnc1SCC(=O)c1ccc(Br)cc1`, with 8.93%; and `O=C(c1cn(-c2ccccc2)nc1-c1cccs1)N1CCN(c2ccc(F)cc2)CC1`, with -11.2%.
As for `Cc1cccnc1NC(=O)CN1C(=O)NC(C)(c2ccc3ccccc3c2)C1=O` (centres unmarked), the “hERG current change (%, negative = inhibition) at 10uM” value is -14%.
Then `Cc1onc(-c2ccccc2)c1C(=O)Nc1nnc(C(C)C)s1`, with -1.03%; and `CCSc1nnc(Cc2cc(=O)[nH]c(=O)[nH]2)n1-c1ccc(F)cc1`, with 15.4%.
Consider `O=C(NCc1ccccc1)c1cc(-c2ccncc2)nc2ccc(S(=O)(=O)N3CCOCC3)cc12`, for which the “hERG current change (%, negative = inhibition) at 10uM” value was -23%.
Then `O=C(N=C1SC2CS(=O)(=O)CC2N1c1ccccc1C(F)(F)F)C1CCCO1` (centres unmarked), with 2.32%.
Then `COc1ccc(C(CNC(=O)C(CCSC)NC(=O)c2ccccc2Cl)N2CCOCC2)cc1` (centres unmarked), with -8.2%; and `Cc1cc(O)c(C(C)C)cc1NS(=O)(=O)c1ccccc1`, with 3.62%.
Then `COc1ccc(CCN2CN(S(=O)(=O)c3ccccc3)c3nc4ccccc4nc32)cc1OC`, with -0.784%.
`O=C1c2cc(CO)cc(O)c2C(=O)c2c(O[C@@H]3OC(CO)[C@@H](O)[C@@H](O)[C@@H]3O)cccc21` (some centres unmarked): the “hERG current change (%, negative = inhibition) at 10uM” value was found to be 22%.
Take `O=S(=O)(NCc1cn2ccsc2n1)c1ccc(Oc2ccccc2)cc1`: the “hERG current change (%, negative = inhibition) at 10uM” value is -5.62%.
`Cc1ncc([N+](=O)[O-])n1CCOC(=O)NC(NCc1ccccc1Cl)C(Cl)(Cl)Cl` (centres unmarked): the “hERG current change (%, negative = inhibition) at 10uM” value is listed as -37.8%.
Then `COc1ccc(NC(=O)C2(c3ccc(NC(=O)c4ccc(OC)cc4)cc3)CCCC2)cc1`, with -9.88%; and `O=C(O)c1cccc(Nc2nc(N3CCOCC3)nc(N3CCOCC3)n2)c1`, with -2.93%; and `COc1ccc(S(=O)(=O)N2CCOCC2)cc1C(=O)N1CCCC1`, with 14%.
Then `O=C(O)CN1C(=O)S/C(=C\c2cccnc2)C1=O`, with 8.9%; and `Cc1c(C(N)=O)sc2ncn(CC(=O)NCCc3ccccc3)c(=O)c12`, with 3.18%.
As to `Cc1cc(C)nc(NS(=O)(=O)c2ccc(NC(=O)c3ccc(N4C(=O)CCC4=O)cc3)cc2)n1`, the “hERG current change (%, negative = inhibition) at 10uM” value was 11.1%.
`CCOc1ccc(-c2csc(NC(=O)c3ccco3)n2)cc1`: the “hERG current change (%, negative = inhibition) at 10uM” value came to 0.136%.
Take `CC(=O)Nc1ccc(C(=O)OCC(=O)Nc2ccc(Cl)cc2C(=O)c2ccccc2)cc1`: the “hERG current change (%, negative = inhibition) at 10uM” value is -10.2%.
For the compound `CCOc1ccc(NS(=O)(=O)c2ccc(C(=O)N(C)CC(=O)Nc3ccc(C)cc3)cc2)cc1`, the “hERG current change (%, negative = inhibition) at 10uM” value came out at 2.63%.
